Results reported in paper PMC10726135.
This is one part of the list. At the low end of the ranking the order means little. The protein was read in a cell extract, so binding may be indirect.

What follows are sequences tested against T1, HNF4alpha8 (COS-7 nuclear extract) (UniProt P41235-5) (assay: protein-binding microarray). Conditions: COS-7 nuclear extract on double-stranded Agilent 4x180k PBM; binding buffer, salt, pH and temperature not given; high values mean tight binding; double strand, one strand shown; sequences stand for … in …GCCTAGGGAGATTAGAGTATCGGTCGA.
T1 sequence: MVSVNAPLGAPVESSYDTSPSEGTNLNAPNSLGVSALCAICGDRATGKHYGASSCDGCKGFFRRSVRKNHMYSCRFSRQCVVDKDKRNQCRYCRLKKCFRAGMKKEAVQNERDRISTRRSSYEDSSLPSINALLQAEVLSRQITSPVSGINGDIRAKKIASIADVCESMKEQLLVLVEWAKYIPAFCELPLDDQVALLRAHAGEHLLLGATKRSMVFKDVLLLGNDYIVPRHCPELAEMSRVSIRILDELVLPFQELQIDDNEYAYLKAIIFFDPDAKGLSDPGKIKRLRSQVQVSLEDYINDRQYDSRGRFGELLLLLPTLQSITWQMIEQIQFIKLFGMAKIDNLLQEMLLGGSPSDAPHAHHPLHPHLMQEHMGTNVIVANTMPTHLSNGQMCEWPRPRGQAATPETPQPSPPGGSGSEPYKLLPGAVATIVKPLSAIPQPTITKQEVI
ATTTATTTTGTGTGCTAGATACTGGAGATA showed a binding signal (log2 normalized intensity) of 1.02. With AACTCCCAGTCTGTTATCAGAGCTGGAGGA the binding signal (log2 normalized intensity) was -1.25. In the case of GGCGGCCGCGCGCAGGGCGGACAGCGCCGC, the binding signal (log2 normalized intensity) is reported as -1.31. For ATCTCTTTTGTGTTAGAGGGTGGTGGGTGA, the binding signal (log2 normalized intensity) was 1.94. ACACAGATCATATCATTTATTTGCTTAAAA gave a binding signal (log2 normalized intensity) of -1.11. With ATTTGCCACCAATGCCTCTATGTAGCAATC the binding signal (log2 normalized intensity) was -1.31. Sequence AAAAATAGGAGACTGTCTTAGGAAAGAACA has a binding signal (log2 normalized intensity) of -1.26. For CAAGGACACTGAAAGGCATTCTGCCAACAC, the binding signal (log2 normalized intensity) was -1.27. TGGTATGCTAGAGTACTTGGACTTTAACCT gave a binding signal (log2 normalized intensity) of 9.56. With AAGCCTTATCACTGTTTGGCCTATGGGAAA the binding signal (log2 normalized intensity) was 0.766. With TAAAGTTCAGCTTCTCTTGTTTGTGTAACT the binding signal (log2 normalized intensity) was 1.18. AAAGAACAAACTTCCCCTGCAGCTGATCAT was tested, and the binding signal (log2 normalized intensity) was -0.756. For AAGGTTGGTCTTAGGACCACATGAGTAAAC, the binding signal (log2 normalized intensity) was 3.54e-05. TGCAGCGGCATTCTCTGGTCTGCGGTTGTG showed a binding signal (log2 normalized intensity) of 0.807. In the case of TTGCTTAAGCATAGCAAAAGTGACCTTTGC, the binding signal (log2 normalized intensity) is reported as 9.23. Sequence CACCCCAGCAAACAGGTCCTGCTGGTTTGC has a binding signal (log2 normalized intensity) of 0.613. TTTCTGAGCAGGATGTCCAGAATGAGTGTG gave a binding signal (log2 normalized intensity) of 0.0751. Work on GTGGTGAGGAAAAGGAGGAGTTTGACCCCA yielded a binding signal (log2 normalized intensity) of 7.27. With TCAGTGAAGGCCTCTGATGATTCTAAAGGC the binding signal (log2 normalized intensity) was -1.22. TCCCTAACCCTTCAAGGGCCACTCAGTTGA showed a binding signal (log2 normalized intensity) of -1.29. ACTGGGTCTTAATAAGATAATAAGTGACCC gave a binding signal (log2 normalized intensity) of 4.31. With TCCTTGATTAAACTTTAGTCAGATTCCTCT the binding signal (log2 normalized intensity) was 1.65. Work on TCCAAAGGTCACAGTAGGGAAAGTGGGGGG yielded a binding signal (log2 normalized intensity) of 2.52. CCTCTCTCTCCTGGCCTCTGAGATTCGGTG was tested, and the binding signal (log2 normalized intensity) was 0.654. Sequence AGGGCCTAGAAGAGTTCCTGACAATTGGCC has a binding signal (log2 normalized intensity) of 0.971. For TGAGGCTAAGAGGTGAACACATTCCTCATT, the binding signal (log2 normalized intensity) was -1.43. GACCAGCATTCTTTCTGCTGCAATTTAAGC gave a binding signal (log2 normalized intensity) of -1.1. TGCTCTCTCTCTTTTTCTGAGCCTGGGTCA gave a binding signal (log2 normalized intensity) of 2.19. TTCTCATCTTATCTAGTTTCCTAGCTCACT was tested, and the binding signal (log2 normalized intensity) was -1.37. GCAAGCCAGTCAGAATCTCTCTGTAGGTAA was tested, and the binding signal (log2 normalized intensity) was -1.39. Sequence ACAGTGATTGTCACAAGACTGTTATCACAG has a binding signal (log2 normalized intensity) of 0.519. TCTGGGTTAAACGTGCAGCAATAGGTCAGA showed a binding signal (log2 normalized intensity) of 2.04. TGACCTTTGAAACTTACATTCTAAAGCAGA was tested, and the binding signal (log2 normalized intensity) was 5.15. For TACCATGTGTTGGCACTTTGGACTTGAGAA, the binding signal (log2 normalized intensity) was 5.4. For ACAAGGTGTGTTTGAGCAGGGGTGAACAAA, the binding signal (log2 normalized intensity) was -0.257. With GTGTCAGTCCAGAGTTTGTGGCTCCATACT the binding signal (log2 normalized intensity) was 0.463. CAACTAGGCCTGAAATTTGGCCTGCTGAGC was tested, and the binding signal (log2 normalized intensity) was -0.424. Work on ACTTTGCCCTTTTTTTCTCTCCCCTTTTAA yielded a binding signal (log2 normalized intensity) of 2.63. Sequence ATAACACTATTTGATGAGTCTTAGAGTCCA has a binding signal (log2 normalized intensity) of 2.77. Work on AATATGTGGACTTCAAAGGTACTTATCAGA yielded a binding signal (log2 normalized intensity) of 1.07. With ACCGTCTTGTGGATCCTTGGAGGACCTTGG the binding signal (log2 normalized intensity) was 2.42. CCCCCTATGTAAAGGCCTTTGAAGCTTGAA showed a binding signal (log2 normalized intensity) of 2.64. CCTCAAATTACAAAAGGAGTTGGGGGACAG showed a binding signal (log2 normalized intensity) of -1.44. CCACATCGAAGGCCAAGGGATTTCAGTGCC showed a binding signal (log2 normalized intensity) of -1.26. Sequence AAGGAGCTTGGGAAGACAGATGTGATATTC has a binding signal (log2 normalized intensity) of 0.00435. In the case of CTTCTCACCACCTCTGCTGCGATCACCCAG, the binding signal (log2 normalized intensity) is reported as -0.978.
